Among all 330,000 compounds or so, about 4,200 (1.3%) were called active. Inconclusive results, whose numbers are uncertain, are shown with a selection of clear calls. Calls follow the shape of the dose curve; as a rule, active = well fitted activation curve with a large enough effect; inconclusive = small, poorly fitted or top-dose-only effect; inactive = no such curve, though single readings can be large or run the other way. A potency beside an inconclusive call is a rough fit, not a confirmed value.
Assay: qHTS screen for small molecules that induce genotoxicity in human embryonic kidney (HEK293T) cells expressing luciferase-tagged ELG1; also: nearly all actives have a fitted effect of over 60% in size; as to activity change, positive = activation: % of control where 0% means no effect
Conditions: HEK293T ELG1-luciferase reporter, luminescence, 16 h; series mostly up to 46 µM; activity change, positive = activation: at the top concentration
In short: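 Luminescence read-out: rising ELG1-luciferase signal, reflecting elevated ELG1 protein under genetic stress, flags genotoxic compounds. Cells were treated for 16 hr at 37 °C before ONE-Glo detection.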
Potency is read from the fitted curve at half-maximal effect; tags tell the direction and shape of the fitted curve.

SMILES	Potency	activity change, positive = activation
COc1cc([N+](=O)[O-])ccc1NC(=O)COC(=O)CCOc1ccc(C)cc1	inconclusive: 23.1 µM [activator, single point]	–
Cc1ccc(C(=O)Cc2cc3ccccc3oc2=O)c(C)c1	inconclusive: 7.3 µM [activator, partial curve]	–
Cc1ccc(-n2nnc3c(=O)n(CC(N)=O)cnc32)cc1	–	inactive: 2.06%
Cc1cc(Br)cc2c(C(=O)NCC3CCCO3)cc(-c3cccs3)nc12 (centres undefined)	inconclusive: 23.1 µM [activator, single point]	–
CC1CN(C(=S)Nc2ccccc2C(F)(F)F)CC(C)O1 (centres undefined)	–	inactive: -0.947%
CC(C)(C)c1cnnn1-c1ccc(NC(=O)c2ccc3c(c2)OCO3)cc1	inconclusive: 23.1 µM [activator, single point]	–
COC(=O)c1ccc(N=NNc2ccc(C(=O)OC)cc2)cc1	active: 18.4 µM	–
c1ccc(CCNc2nc(-c3ccccn3)cs2)cc1	inconclusive: 5.8 µM [activator, partial curve]	–
CCCCOC(=O)Nc1ccc(C(=O)OCCC)cc1	inconclusive: 14.6 µM [activator, partial curve, poor fit]	–
CCCCc1cc(=O)oc2c(C)c(OCC(=O)NCC3CCC(C(=O)O)CC3)ccc12 (centres undefined)	–	inactive: 12.5%
C=CCNC(=O)c1ccccc1NC(=O)C1CC(=O)N(C(C)C)C1 (centres undefined)	–	inactive: -0.0835%
CCOc1ccc(C2C3=C(CCCC3=O)Nc3ccc4ncccc4c32)cc1 (centres undefined)	inconclusive: 25.9 µM [activator, partial curve, poor fit]	–
Cc1cc(=O)n2ccccc2c1C#N	–	inactive: -6.55%
O=C(/C=C/c1cccc(C(F)(F)F)c1)NNC(=O)c1ccncc1	–	inactive: 1.19%
O=C(NCCc1ccccn1)c1cc2ccccc2o1	inconclusive: 23.1 µM [activator, single point]	–
O=C(Nc1ccc2ccccc2c1)c1cccc(F)c1	inconclusive: 3.26 µM [activator, full curve]	–
CSc1ccc(CNC(=O)c2ccc(NC(=O)C3=CSCCO3)cc2)cc1	inconclusive: 18.3 µM [activator, partial curve, poor fit]	–
O=C(CCSc1ccccn1)Nc1ccc(Br)cc1	inconclusive: 18.4 µM [activator, partial curve]	–
CCOC(=O)C(=CNc1cccc(C)c1C)C(=O)OCC	–	inactive: 1.47%
COC(=O)c1sc2nc(N)c(C#N)cc2c1N	inconclusive: 23.1 µM [activator, partial curve, poor fit]	–
N#CC1(c2ccccc2)CCN(S(=O)(=O)c2ccc(OC(F)(F)F)cc2)CC1	–	inactive: -6.91%
COc1ccc(C(=O)N/N=C/C(=O)c2ccccc2)cc1	active: 10.3 µM	–
CCOc1ccc2nc(NC(=S)N(C)C)sc2c1	active: 0.366 µM	–
O=C(Nc1ccc(O)c2c(=O)cc(-c3cccc(Cl)c3)oc12)c1ccccc1Cl	inconclusive: 23.1 µM [activator, partial curve, poor fit]	–
COc1ccc(N)cc1-n1c(C)ccc1C	inconclusive: 20.6 µM [activator, single point]	–

SMILES	Potency	activity change, positive = activation
COc1ccc(NC(=O)C2CC(=O)N(Cc3ccco3)C2)cc1Cl (centres undefined)	–	inactive: -0.833%
CC(=O)CCC(=O)OCC(=O)Nc1ccc(SC(F)F)cc1	–	inactive: 1.29%
O=C(Nc1nc2ccccc2[nH]1)c1ccc(Cl)c([N+](=O)[O-])c1	inconclusive: 16.4 µM [activator, partial curve, poor fit]	–
CS(=O)(=O)NCc1ccc(C(=O)NCCOc2ccccc2)cc1	inconclusive: 11.6 µM [activator, partial curve, poor fit]	–
O=C(CN1CC[n+]2c(-c3ccccc3)csc21)c1ccc(Br)cc1	–	inactive: -11.2%
Cc1c(C(=O)N2CCN(C)CC2)oc2ccc(Br)cc12	inconclusive: 23.1 µM [activator, partial curve, poor fit]	–
Cc1cccc(N/N=C2/COC(C)(C)CC2=O)c1	inconclusive: 16.4 µM [activator, partial curve]	–
Cc1cccc(N2N=C(C(=O)N3Cc4ccccc4CC3C(N)=O)CCC2=O)c1 (centres undefined)	–	inactive: 2.84%
COc1cccc(/C=C2\SC(=O)N(CCC(=O)N3CCCCC3CCO)C2=O)c1 (centres undefined)	–	inactive: -2.98%
Cc1nc(-c2ccc(NC(=O)c3ccc(Br)o3)cc2)cs1	active: 2.91 µM	–
O=C(NCCCN1CCOCC1)c1cc(-c2ccc3c(c2)OCO3)nc2ccccc12	–	inactive: -4.74%
NC(=O)N1CCC2(CC1)NC(=O)N(c1ccccc1)N2	–	inactive: 15.9%
O=C(COc1ccc(Br)cc1Br)NC(=O)NC1CCCC1	inconclusive: 14.6 µM [activator, partial curve]	–
CC(=O)c1cc(F)ccc1OCC(=O)Nc1ccc2c(c1)OCO2	inconclusive: 3.66 µM [activator, full curve]	–
Cc1ccnc(NC(=O)c2cc3ccccc3o2)c1	inconclusive: 0.231 µM [activator, full curve]	–
Cc1ccc(-c2cc(C(=O)Nc3cc(C)on3)c3ccccc3n2)c(C)c1	–	inactive: 0.48%
CCOC(=O)C1=C(C)N=C2SC(C(=O)OC)=CC(=O)N2C1c1ccc(OC)cc1 (centres undefined)	inconclusive: 29.1 µM [activator, single point]	–
O=c1ccc2ccc(Oc3ccc([N+](=O)[O-])cc3[N+](=O)[O-])cc2o1	inconclusive: 16.4 µM [activator, partial curve, poor fit]	–
CC(C)Sc1nnc(NC(=O)c2ccc3c(c2)OCO3)s1	inconclusive: 2.91 µM [activator, full curve]	–
CCOC(=O)c1c(C)nc2c(c1-c1ccccc1)C(=O)CCC2	–	inactive: -3.51%
Cc1cc(NC(=O)c2cc(-c3ccccc3)on2)no1	inconclusive: 20.6 µM [activator, partial curve, poor fit]	–
c1ccc(Cc2nnc3sc(Nc4ccccc4)nn23)cc1	inconclusive: 14.6 µM [activator, partial curve, poor fit]	–
CCOc1ccc(C(=O)NCCc2ccccc2)cc1	active: 0.58 µM	–
O=C(COC(=O)C1CC2CCCC(C1)C2=O)NNC(=O)c1ccccc1F (centres undefined)	–	inactive: -0.643%
CN(C)S(=O)(=O)c1cccc(NC(=O)/C=C/c2ccc(S(=O)(=O)N3CCOCC3)cc2)c1	–	inactive: -7.84%

SMILES	Potency	activity change, positive = activation
OC1(C#CCN2CCOCC2)CCCCC1	inconclusive: 16.4 µM [activator, partial curve, poor fit]	–
CSc1ccccc1OCc1cc(C(=O)N(C)Cc2ccc3nsnc3c2)no1	active: 3.26 µM	–
COc1ccc(C(=O)Nc2cc3c4c(c2)CC(=O)N4CCC3)c(OC)c1	inconclusive: 14.6 µM [activator, partial curve]	–
CCOC(=O)Cn1cnc2scc(-c3ccc(C)c(C)c3)c2c1=O	–	inactive: -11.4%
Cc1cc(C(=O)CSc2nnc(-c3cccnc3)n2-c2ccccc2)c(C)n1CC1CCCO1 (centres undefined)	–	inactive: 11.6%
S=C(N/N=C/c1ccco1)NC1CC2CCC1C2 (centres undefined)	inconclusive: 20.6 µM [activator, partial curve, poor fit]	–
COc1ccc(OCCN2C(=O)c3ccccc3C2=O)c([N+](=O)[O-])c1	inconclusive: 14.6 µM [activator, partial curve, poor fit]	–
O=C(Nc1cccc2ccccc12)NC1Cc2ccccc2C1	inconclusive: 18.3 µM [activator, single point]	–
CN(C)c1ccc2c(c1)OC(N)=C(C#N)C2c1cccc(F)c1 (centres undefined)	inconclusive: 1.46 µM [activator, partial curve, poor fit]	–
CCc1nnc(NC(=O)c2cccs2)s1	inconclusive: 18.4 µM [activator, partial curve]	–
Cc1ccc(-c2nnn3c2nc(NCCc2ccc(S(N)(=O)=O)cc2)c2ccccc23)cc1	inconclusive: 7.31 µM [activator, partial curve]	–
CCCCn1c(N)c(-c2nc3ccccc3s2)c2c([N+](=O)[O-])nn(C)c(=O)c21	inconclusive: 32.6 µM [activator, partial curve, poor fit]	–
Clc1ccccc1CSc1cc2c(nn1)-c1ccccc1CC2	inconclusive: 8.2 µM [activator, partial curve, poor fit]	–
CCc1ccc(NC(=O)c2cc(C(C)C)on2)cc1	inconclusive: 1.84 µM [activator, partial curve]	–
Cc1ccc(COc2ccc(/C=N/O)cc2)cc1	inconclusive: 3.66 µM [activator, full curve]	–
CCCCOc1cccc(C(=O)Nc2ccc(N3CCN(CC)CC3)cc2)c1	inconclusive: 32.6 µM [activator, partial curve, poor fit]	–
C/C(=N/OC(=O)c1ccccc1Br)c1ccc(C)cc1	inconclusive: 18.3 µM [activator, single point]	–
O=C(C[C@@H]1C/C=C/CCCC(=O)O[C@H](c2ccccc2)CNC1=O)N[C@H](CO)Cc1ccccc1	–	inactive: -0.255%
CCSc1nnc(NC(=O)c2ccco2)s1	inconclusive: 11.2 µM [activator, partial curve, poor fit]	–
Oc1ccc(-c2nnc(SCC3CCCCC3)o2)cc1	inconclusive: 11.6 µM [activator, partial curve]	–
CCOC(=O)c1sc(NC(=O)Nc2ccccc2Cl)cc1C	inconclusive: 0.92 µM [activator, partial curve, poor fit]	–
COc1ccc(N2CCN(S(=O)(=O)CCNC(=O)c3cc(=O)c4ccccc4o3)CC2)cc1	–	inactive: 0.541%
Cc1cccn2c(=O)c(/C=C(\C#N)S(=O)(=O)c3ccccc3)c(N3CCCCC3)nc12	–	inactive: -7.94%
O=C(Nc1ccc(/C=C/c2nc3ccccc3o2)cc1)c1cccc(C(F)(F)F)c1	inconclusive: 18.4 µM [activator, partial curve, poor fit]	–
